The record followed here is PubChem BioAssay AID488969 (Vanderbilt High Throughput Screening Facility, 2010).

Whole data set: some 110,000 compounds, median “z-score” near -0.1, cut for the highest 2% near 2. This is one part of the list.

In the assay the target is Metabotropic glutamate receptor 8 (Rattus norvegicus) (UniProt P70579). As to the kind of experiment: rat mGluR8 modulators via GIRK flux, primary screen, cell-based, thallium flux, HTS (AID 488969). Conditions: HEK293 rat mGluR8, GIRK (G protein-gated inwardly rectifying potassium channel) thallium flux, FluoZin2; at 10 µM; stronger effect = higher value; submaximal glutamate (EC20) added with thallium.
UniProt P70579, sequence (P70579 whole entry, looked up): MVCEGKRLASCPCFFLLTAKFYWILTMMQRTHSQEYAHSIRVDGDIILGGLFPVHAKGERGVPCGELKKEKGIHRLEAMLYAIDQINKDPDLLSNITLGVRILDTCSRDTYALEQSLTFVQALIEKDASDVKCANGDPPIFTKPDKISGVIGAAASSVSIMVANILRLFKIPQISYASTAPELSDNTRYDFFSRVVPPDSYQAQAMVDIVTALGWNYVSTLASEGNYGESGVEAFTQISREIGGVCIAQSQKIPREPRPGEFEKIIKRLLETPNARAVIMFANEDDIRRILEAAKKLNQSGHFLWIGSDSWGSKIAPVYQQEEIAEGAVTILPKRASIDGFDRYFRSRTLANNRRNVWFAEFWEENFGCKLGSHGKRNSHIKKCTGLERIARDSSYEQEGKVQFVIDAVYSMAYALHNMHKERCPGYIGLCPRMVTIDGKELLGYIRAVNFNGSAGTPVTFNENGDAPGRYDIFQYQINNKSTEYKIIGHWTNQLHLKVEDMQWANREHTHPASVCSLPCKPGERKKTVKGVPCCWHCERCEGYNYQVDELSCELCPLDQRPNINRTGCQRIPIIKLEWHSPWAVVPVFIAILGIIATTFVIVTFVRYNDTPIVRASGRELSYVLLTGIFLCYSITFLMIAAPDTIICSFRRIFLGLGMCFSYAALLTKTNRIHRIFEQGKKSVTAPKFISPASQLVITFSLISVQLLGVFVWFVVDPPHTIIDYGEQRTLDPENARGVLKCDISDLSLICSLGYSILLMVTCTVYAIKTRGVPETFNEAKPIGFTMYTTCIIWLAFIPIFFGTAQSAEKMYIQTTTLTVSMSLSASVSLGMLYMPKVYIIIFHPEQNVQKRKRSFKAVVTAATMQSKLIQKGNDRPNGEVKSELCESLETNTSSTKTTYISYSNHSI
Compound `Clc1ccc(OCc2nc(-c3ccncc3)no2)cc1` displayed a z-score of 0.0261.
As for `CC(C)C(CCN1C(=O)CCC1=O)C1CCOC(C)(C)C1` (centres undefined), the z-score is -0.19.
For the compound `Clc1cccc2sc(N3CCN(c4ccccc4)CC3)nc12`, the z-score was -0.224.
The compound `CN(Cc1nc2ccccc2n1C)C(=O)c1cccs1` came in with a z-score of 0.0325.
For `CC1CCC(NC(=O)COc2ccccc2C(N)=O)CC1` (centres undefined), the z-score amounted to 0.317.
Consider `CC(C)CC(NC(=O)C1CCC(C)CC1)C(=O)Nc1ccc2c(c1)OCCO2` (centres undefined), for which the z-score was 0.364.
Consider `CN1CCC(Oc2ccccc2Sc2ccccc2)CC1`, for which the z-score was found to be 0.275.
Regarding `Cc1ccc(S(=O)(=O)Oc2ccc(/C=C3/N=C(c4ccccc4)OC3=O)cc2)cc1`, the z-score is -0.166.
As to `C/C(=N\Nc1nc(-c2cc(C)ccc2C)cs1)c1cc2ccccc2oc1=O`, the z-score is -0.206.
As for `CCc1ccc(C2C(C(C)=O)=C(C(=O)OC)Nc3nnnn32)cc1` (centres undefined), the z-score is -0.322.
For `COc1cc(C(=S)N2CCC(C(N)=O)CC2)ccc1O`, the z-score was -0.479.
The result for `O=C(Nc1ccccc1Cl)O/N=C/c1ccncc1` reads -0.187; that for `CCOc1ccccc1OCCCOc1ccc([N+](=O)[O-])cc1Cl`, -0.175.
Turning to `Cc1ccc(S(=O)(=O)Nc2ccc3c(c2)c2c(n3S(=O)(=O)c3ccc(C)cc3)CCCC2=O)cc1`, the z-score is -0.226.
On to `Cc1ccc(Nc2nc(N)nc(CSc3nnc(-c4ccncc4)o3)n2)cc1`, for which the z-score is -0.482.
For the compound `CC(OC(=O)CCc1nc2ccccc2c(=O)[nH]1)C(=O)c1ccc(C(C)(C)C)cc1` (centres undefined), the z-score was -0.185.
In the case of `Cc1nn(-c2ccccc2)c(Cl)c1C(=O)NCC(C)C`, the z-score is 0.105.
`Cc1cccc(C)c1NC(=O)c1cc2c(=O)c3ccccc3oc2nc1C(F)(F)F`: the z-score was -0.121.
Regarding `CCc1ccc(C(=O)/C=C/c2cnn(C)c2C)s1`, the z-score was -0.153.
The result for `CC1=C(C(=O)OC(C)C)C(c2ccc(N(C)C)cc2)C2=C(CC(C)(C)CC2=O)N1` (centres undefined) reads 0.452.
Regarding `Cc1ccc(S(=O)(=O)NCC(=O)Nc2ccc(C(F)(F)F)cc2)cc1`, the z-score worked out at 0.0489.
Compound `O=C1c2ccccc2C(=O)N1CCCCN(C(=O)c1ccc([N+](=O)[O-])cc1)c1ccc(Cl)cc1` returned a z-score of 0.047.
Compound `CN1C(=S)SC(N(O)C(=O)Nc2cccc3ccccc23)C1(C)C` (centres undefined) registered a z-score of 0.396.
For the compound `COC(=O)Cn1c(=NC(=O)C2CC2)sc2c(C)cc(C)cc21`, the z-score is -0.21.
For `CC(C)N(c1nnc(N)s1)C(C)C`, the z-score was -0.986.
The result for `Cc1ccc(S(=O)(=O)NC(=O)Nc2ncc3c(n2)CC(c2ccco2)CC3=O)cc1` (centres undefined) reads 0.0669; that for `CN(C)c1ccc(/C=N/N=C/c2ccccc2O)cc1`, -0.118.
`O=C(NCc1ccco1)c1c[nH]c2ccc(S(=O)(=O)N3CCOCC3)cc2c1=O`: the z-score is -0.94.
The result for `Cc1ccc(S(=O)(=O)NNc2ccccc2)cc1` reads -0.271; that for `COC(=O)c1c(C)[nH]c(C(=O)CSc2ncnc3sc(-c4ccccc4)cc23)c1C`, 1.11; that for `Cc1cc(N(C)Cc2ccccc2)nc(-c2ccccc2)n1`, -0.288.
`CNc1ccc(/C=C/C(=O)c2ccc(C)cc2)cc1[N+](=O)[O-]`: the z-score was 0.0245.
With `COc1ccccc1N(C(C)=O)C1SC(=O)N(c2ccccc2)C1=O` (centres undefined), the z-score is -0.264.
In turn, `COc1ccc(OC)c(NC(=O)CC2C(=O)NCCN2C(=O)Nc2cccc(Cl)c2)c1` (centres undefined) gave a z-score of 0.138.
Regarding `O=C(Nc1cccc(N=Cc2cc(Cl)cc(Br)c2O)c1)c1ccco1`, the z-score was -1.44.
Under `Cc1ccc(N(C(=O)Cn2nnc3ccccc32)C(C(=O)NCc2ccccc2)c2ccccn2)cc1` (centres undefined) stands 0.187; under `COc1ccc(/C=C/C(=O)Oc2ccc(/C=N\NC(=O)c3ccc(F)cc3)cc2)cc1`, 0.18; under `COc1ccc(CCN(C(=O)COc2ccccc2)c2nc(-c3ccccc3)cs2)cc1OC`, 0.108.
With `C/C(=N/NC(=O)Cn1nc2ccccc2n1)c1ccc(F)cc1`, the z-score stood at 0.698.
Under `Cc1cccc(CSc2nc3c(c(-c4cccs4)c2C#N)CN(C)CC3)c1` stands -0.141.
As for `CC(C)c1nc(SCC(=O)N2c3ccccc3CC2C)c2ccccc2n1` (centres undefined), the z-score is -0.621.
The compound `Cc1ccc(NC(=O)c2cccs2)cc1NC(=O)c1ccco1` yielded a z-score of 0.722.
The result for `CCOC(=O)C1CCN(C(=O)c2n[nH]c(=O)c3ccccc23)CC1` reads -0.224.
On to `Cc1cc(Nc2ccccc2)n(CCC#N)n1`, for which the z-score is 0.151.
Consider `COc1ccc(CCNC(=S)Nc2ccc(OC)cc2)cc1`, for which the z-score was -0.23.
Take `CCc1c(C)nc(SCC(=O)Nc2c(C)n(C)n(-c3ccccc3)c2=O)[nH]c1=O`: the z-score was -0.337.
Consider `CC(=O)n1c2c(c3ccccc31)OC(N)=C(C#N)C2c1cccc(Cl)c1Cl` (centres undefined), for which the z-score worked out at 0.486.
For `Nc1nnc(SCC(=O)OCC(=O)Nc2ccc(Br)cc2)s1`, the z-score is -0.137.
Regarding `O=C(COc1ccccc1)N(Cc1ccccc1)c1nc(-c2ccccc2)cs1`, the z-score is -0.00319.
In the case of `c1ccc2c(c1)ncn2-c1ncnc2sc3c(c12)CCCC3`, the z-score is -0.599.
Consider `CCn1c(=S)sc2c(=O)n(-c3ccccc3)c(SCC(=O)NCc3ccco3)nc21`, for which the z-score is -0.665.
For `CCOC(=O)N1CCN(C(=O)c2cc(-n3cnnc3)ccc2Cl)CC1`, the z-score is -0.285.
On to `Cc1c(Cl)c(=O)oc2cc(OCC(=O)NCc3cccs3)ccc12`, for which the z-score was -0.66.
`CN(C)[C@@H]1CCC[C@H]1OC(=O)C(c1ccccc1)c1ccccc1`: the z-score is -1.41.
For `CCCCn1nc2cc(C(=O)NCCCCc3ccccc3)ccc2c1OCC`, the z-score is -0.142.
With `CCOC(=O)N/N=C\C=C\c1ccco1`, the z-score was 0.00855.
In turn, `Cc1ccc(Cl)cc1NC(=S)N(CCCN1CCOCC1)Cc1ccccn1` displayed a z-score of 0.661.
Under `CCN(CC)CCOc1ccc2c(c1)C(=NNC(=O)c1ccccn1)c1cc(OCCN(CC)CC)ccc1-2` stands -0.168; under `Cc1cccc(NC(=O)N2CCN(Cc3ccccc3)CC2)c1`, -0.243.
For the compound `CC(=O)c1ccc(NC(=O)/C=C/c2ccc(C)cc2)cc1`, the z-score is -0.268.
In the case of `O=C(NCc1nnc(SCc2ccccc2)n1-c1ccc(F)cc1)C12CC3CC(CC(C3)C1)C2`, the z-score was -0.149.
Under `Cc1ncc([N+](=O)[O-])n1CCOC(=O)c1ccccc1` stands 0.178; under `CC(=O)N1c2c(cc(Br)cc2S(=O)(=O)NCC2COc3ccccc3O2)CC1C` (centres undefined), 0.248; under `Cc1oc2c(c1C(=O)Nc1ccc(C(=O)O)cc1)CCCC2`, -0.205.
Turning to `CCCCC(=O)Nc1ccccc1C(=O)OCC(=O)c1ccc2c(c1)OCCO2`, the z-score was -0.775.
For `CCN(CC)c1ccc(S(=O)(=O)Nc2cc(Cl)ccc2Cl)cc1NC(=S)NC(=O)C1CCCC1`, the z-score is -0.362.
`Cc1ccccc1NC(=O)CC1SC(=O)N(c2ccccc2)C1=O` (centres undefined) returned a z-score of 0.298.
As to `Cc1cc(C(=O)Nc2c(C)nn(Cc3ccccc3Cl)c2C)no1`, the z-score was -0.574.
Take `CC1CCN(CCCn2c(=S)[nH]c3ccc(N4CCOCC4)cc3c2=O)CC1`: the z-score is -0.134.
